Consider one molecule from patent publication US20080124340A1.

For test [1], the target named is cynomolgus monkey EpoR (cynoEpoR) (cynomolgus monkey). Kind of test: SPR, Biacore T100; scFv-Fc captured by anti-human IgG Fc on CM5 chip, EpoR as analyte. (In general: In SPR one partner is held on a chip, and binding of the other changes the refractive index at the surface.)
In test [2] the target is T1, soluble human erythropoietin receptor protein (huEpoR) (human) (UniProt P19235).
T1 sequence (looked up): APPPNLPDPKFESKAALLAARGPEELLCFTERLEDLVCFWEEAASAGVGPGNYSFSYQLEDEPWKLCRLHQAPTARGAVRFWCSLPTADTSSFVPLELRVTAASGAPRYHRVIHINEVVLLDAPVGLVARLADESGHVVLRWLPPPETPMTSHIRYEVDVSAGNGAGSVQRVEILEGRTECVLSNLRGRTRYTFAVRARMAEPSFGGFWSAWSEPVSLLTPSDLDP
The description is as above.

In test [3] the target is human erythropoietin receptor (huEpoR), cell surface expressed (human) (UniProt P19235). The test can be described thus: cell-based or functional assay.

B1: clone 29 scFv-Fc protein (Fc fusion, part only; not given: scFv linker and IgG1 Fc, not shown: a dimerising Fc or GST)
scFv, part: [letters of about 100 residues omitted]GGHMTTVTRDAFDIWGQGTMVTVSASSELTQDPAVSVALGQTIRITCQGDSLRYYYATWYQQKPGQAPILVIYGQNNRPSGVPDRFSGSSSGNTASLTITGAQAEDEADYYCGTWDSSVSASWVFGGGTKVTVL
Usually Kd stands for a measure of binding affinity in units of concentration. As a reminder, the koff is the rate constant with which the complex falls apart. Usually kon stands for the rate constant with which the complex forms. In test [1], B1 registered a Kd of 265 nM, a koff of 0.0504 s⁻¹ and a kon of 190000 M⁻¹ s⁻¹. In test [2], this molecule returned a Kd of 487 nM, a koff of 0.0629 s⁻¹ and a kon of 129000 M⁻¹ s⁻¹. The molecule also showed an Average EC50, UT-7-luciferase assay in test [3] of 1.52 nM.
